Experimental data reported in article PMC4336329 (PLoS ONE, 2015).
Out of some 310,000 compounds screened, about 14,000 (4.5%) showed an effect of 50% or more. Effects have a minus sign here. The list shows a part of the results.

target: human ether-à-go-go-related gene (hERG) potassium channel (human, UniProt Q12809); assay: primary screen, population patch clamp on CHO cells stably expressing hERG
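Note: peak tail current of the secondary pulse compared with the same well before compound.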

Chain of human ether-à-go-go-related gene (hERG) potassium channel (Q12809 whole entry, looked up): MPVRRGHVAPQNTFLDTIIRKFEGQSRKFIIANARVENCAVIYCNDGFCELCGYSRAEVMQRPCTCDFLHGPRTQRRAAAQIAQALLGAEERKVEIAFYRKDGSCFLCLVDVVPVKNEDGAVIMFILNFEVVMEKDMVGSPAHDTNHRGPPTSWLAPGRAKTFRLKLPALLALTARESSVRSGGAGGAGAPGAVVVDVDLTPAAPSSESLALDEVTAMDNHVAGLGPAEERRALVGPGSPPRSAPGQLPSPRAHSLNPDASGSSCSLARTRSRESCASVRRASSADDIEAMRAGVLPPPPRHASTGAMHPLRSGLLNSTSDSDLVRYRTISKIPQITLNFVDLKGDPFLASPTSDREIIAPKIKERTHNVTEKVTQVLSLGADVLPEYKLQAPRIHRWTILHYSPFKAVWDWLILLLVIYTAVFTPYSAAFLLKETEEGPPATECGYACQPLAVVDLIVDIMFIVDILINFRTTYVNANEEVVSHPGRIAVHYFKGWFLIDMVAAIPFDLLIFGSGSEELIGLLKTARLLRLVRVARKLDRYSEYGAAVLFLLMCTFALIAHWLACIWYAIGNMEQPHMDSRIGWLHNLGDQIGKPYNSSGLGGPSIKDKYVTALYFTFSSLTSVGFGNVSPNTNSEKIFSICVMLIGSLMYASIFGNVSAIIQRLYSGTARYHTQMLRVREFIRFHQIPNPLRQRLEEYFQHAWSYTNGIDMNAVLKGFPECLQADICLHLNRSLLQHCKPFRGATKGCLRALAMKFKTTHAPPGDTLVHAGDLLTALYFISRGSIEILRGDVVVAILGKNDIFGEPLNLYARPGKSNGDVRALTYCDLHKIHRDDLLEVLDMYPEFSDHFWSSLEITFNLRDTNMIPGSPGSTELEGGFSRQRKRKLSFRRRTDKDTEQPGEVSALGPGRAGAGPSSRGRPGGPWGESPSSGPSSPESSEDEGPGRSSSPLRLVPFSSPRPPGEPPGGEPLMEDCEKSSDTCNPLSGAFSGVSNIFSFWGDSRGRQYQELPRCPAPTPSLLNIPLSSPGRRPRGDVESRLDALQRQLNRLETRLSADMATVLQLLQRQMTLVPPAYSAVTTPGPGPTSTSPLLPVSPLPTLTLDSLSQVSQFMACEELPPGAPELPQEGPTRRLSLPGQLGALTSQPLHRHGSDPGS

| SMILES | hERG current change (%, negative = inhibition) at 10uM [%] |
| --- | --- |
| COc1ccc(NC(=O)CC(c2ccco2)C(C)C)cc1 (stereo not shown) | 24.7 |
| N=c1oc2ccc(Cl)cc2cc1C(=O)NC1CCCCCC1 | 5.98 |
| COc1ccc(-c2cc(C(=O)Nc3cnn(Cc4ccccc4C)c3)no2)cc1OC | -6.07 |
| Cc1ccccc1OCCC(=O)OCC(=O)Nc1cc(S(=O)(=O)N2CCOCC2)ccc1Cl | -27.8 |
| CCCCNC(=O)CN(c1cc(C(F)(F)F)ccc1Cl)S(C)(=O)=O | -8.01 |
| CCOC(=O)c1c(/N=C/c2cc(C)ccc2O)sc2c1CCC2 | -0.769 |
| Cc1ccc(-c2nc3ccccc3s2)cc1S(=O)(=O)N1CCOCC1 | -7.03 |
| C=CCn1c(-c2cccn(Cc3ccc(Cl)cc3Cl)c2=O)n[nH]c1=S | 7.94 |
| O=C(NNc1cccc([N+](=O)[O-])c1)/C(=C\c1cccnc1)NC(=O)c1ccccc1 | -30.6 |
| C/C(=N\NC(=S)NC(C)C)c1ccc(-n2ccnc2)cc1 | -16.6 |
| CC1(C(=O)O)CCC(C(=O)Nc2ccc3ccccc3c2)C1(C)C (stereo not shown) | 8.02 |
| COC(=O)c1ccccc1NC(=O)CNc1cc(Cl)ccc1N1CCOCC1 | -0.508 |
| CSc1nc(N2CCOCC2)c2c(c1C#N)CC(C)(C)OC2 | -28.3 |
| O=C(O)C1C2CCC(C2)C1C(=O)NCc1ccccn1 (stereo not shown) | 16.1 |
| COC(=O)/C(C#N)=C/c1c(Oc2cc(C)cc(C)c2)nc2ccccn2c1=O | -9.71 |
| CCOc1ccc(NS(=O)(=O)c2ccc(NC(=S)NC(=O)C(C)C)cc2)cc1 | 9.5 |
| COc1ccccc1N1C(=O)C=C(Sc2nc(C)cc(C)n2)C1=O | 12.6 |
| CC1(C)c2[nH]c3ccccc3c2C[C@@H]2C(=O)N(c3ccc(F)cc3F)C(=O)N21 | 10.4 |
| CCCCCCC(C)OC(=O)Nc1cccc2ccccc12 (stereo not shown) | 14.5 |
| O=C(CC(=O)c1cccc([N+](=O)[O-])c1)Nc1ccccc1Cl | -1.22 |

| SMILES | hERG current change (%, negative = inhibition) at 10uM [%] |
| --- | --- |
| Cc1ccc(OCc2nnc(SCc3ccc(C#N)cc3)n2-c2ccc(C)cc2)cc1 | -29.6 |
| Cc1ccnc(-n2c(C)cc(C=O)c2C)c1 | 14.5 |
| COc1ccc(CC(=O)Nc2cccc3ccccc23)cc1OC | 2.53 |
| NS(=O)(=O)c1cc2c(cc1Cl)NCNS2(=O)=O | -12.3 |
| COc1cc2c(cc1OC)C(c1cccs1)N(C(=O)C(C)C)CC2 (stereo not shown) | -19.2 |
| COc1cc(NS(=O)(=O)c2ccc(NC(=O)Cc3ccccc3)cc2)nc(OC)n1 | 16.1 |
| Cc1ccc(-n2nc(CC#N)c(C#N)c2N)cc1Cl | -3.1 |
| COc1cc(C)c(CN2CCC(n3nccc3NC(=O)C3CC3)CC2)cc1C | -52.7 |
| Cn1cc(CN2CCC(n3nccc3NC(=O)c3ccccc3Cl)CC2)cn1 | -32.9 |
| c1ccc2c(-c3nc(-c4ccncc4)no3)cccc2c1 | 10.6 |
| O=C(c1ccc(CS(=O)c2cccc(Cl)c2)o1)N1CCCCCC1 (stereo not shown) | 11.6 |
| Cc1cc(C)n2ncc(C(=O)Nc3ccc(Cl)c(Cl)c3)c2n1 | 12.7 |
| CN1CCN(c2ccccc2NC(=O)c2ccc([N+](=O)[O-])o2)CC1 | -69.6 |
| COC(=O)Nc1c(C)n(C)n(-c2ccccc2)c1=O | -8.11 |
| CC1(C)CC(=O)C([N+](=O)[O-])=C(NCCCO)C1 | 15.2 |
| N#Cc1cccc(CS(=O)(=O)c2ccc(Cl)cc2)c1 | -3.29 |
| Cc1ccc(NC(=O)Cc2ncon2)cc1Cl | -1.71 |
| CS(=O)(=O)c1cccc(C(=O)Nc2ccc(-c3nc4ccccc4[nH]3)cc2)c1 | 11.5 |
| COc1cc2c(cc1OC)CN(C(=S)Nc1ccc(OC(F)F)cc1)CC2 | -38.8 |
| Cc1cccc(-n2cc[nH]c2=S)c1C | 15.9 |

| SMILES | hERG current change (%, negative = inhibition) at 10uM [%] |
| --- | --- |
| O=C(O)/C=C/c1ccc(-c2cccc(C(F)(F)F)c2)o1 | 22.7 |
| COc1cc2c(cc1OC)CN(c1ccc(F)cc1[N+](=O)[O-])CC2 | -27.9 |
| COc1ccc(S(=O)(=O)N(CCc2ccccc2)CC(=O)O)cc1OC | 5.34 |
| COc1ccc(NC(=O)CC(C)C)c(OC)c1 | 18.3 |
| CCOP(=O)(OCC)c1ccc2c(c1)C(=O)c1ccccc1CC2 | -0.224 |
| COC(=O)c1ccccc1NC(=O)CSc1nc(-c2ccco2)cc(C(F)(F)F)n1 | -0.792 |
| CCc1cc(C(=O)NNC(=S)NC2CCCCC2)cs1 | 8 |
| CCn1ccnc1CN1CCc2c([nH]c3ccccc23)C1CC(C)C (stereo not shown) | -67.9 |
| O=C(CSc1cn(Cc2ccccc2)c2ccccc12)N1CCOCC1 | -25.1 |
| O=C(NC(Cc1ccccc1)C(=O)NC1CC1)OCc1ccccc1 (stereo not shown) | 44.8 |
| COC(=O)c1sccc1-c1ccc(/C=N/OC(=O)c2cccs2)o1 | 3.49 |
| Cc1ccc(S(=O)(=O)NC(C)C(=O)NC2CCCCCC2)cc1 (stereo not shown) | -5.24 |
| CN(C)/N=C/c1cc([N+](=O)[O-])ccc1O | 6.18 |
| COc1ccc(NC(=O)c2cc(OC)c(OC)c(OC)c2)cc1S(=O)(=O)N1CCCCC1 | 15.5 |
| COc1cccc(NC(=S)N(CCCN2CCOCC2)Cc2cn(C)c3ccccc23)c1 | -10.7 |
| O=C(NCCOc1ccccc1)c1ccccc1 | 12 |
| COc1ccc(N=Cc2c(O)n(C)c(=O)n(C)c2=O)cc1 | 7.92 |
| CCOC(=O)c1cnc2c(C)cc(Cl)cc2c1NCCCN1CCOCC1 | 1.44 |
